Data from paper PMC4336329 (PLoS ONE, 2015).
About 14,000 (4.5%) of roughly 310,000 compounds showed an effect of 50% or more. The effect is printed as a negative number. Some of the results follow.

target: human ether-à-go-go-related gene (hERG) potassium channel (human, UniProt Q12809); assay: primary screen, population patch clamp on CHO cells stably expressing hERG
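Also: peak tail current of the secondary pulse compared with the same well before compound.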

Chain of human ether-à-go-go-related gene (hERG) potassium channel (Q12809 whole entry, looked up): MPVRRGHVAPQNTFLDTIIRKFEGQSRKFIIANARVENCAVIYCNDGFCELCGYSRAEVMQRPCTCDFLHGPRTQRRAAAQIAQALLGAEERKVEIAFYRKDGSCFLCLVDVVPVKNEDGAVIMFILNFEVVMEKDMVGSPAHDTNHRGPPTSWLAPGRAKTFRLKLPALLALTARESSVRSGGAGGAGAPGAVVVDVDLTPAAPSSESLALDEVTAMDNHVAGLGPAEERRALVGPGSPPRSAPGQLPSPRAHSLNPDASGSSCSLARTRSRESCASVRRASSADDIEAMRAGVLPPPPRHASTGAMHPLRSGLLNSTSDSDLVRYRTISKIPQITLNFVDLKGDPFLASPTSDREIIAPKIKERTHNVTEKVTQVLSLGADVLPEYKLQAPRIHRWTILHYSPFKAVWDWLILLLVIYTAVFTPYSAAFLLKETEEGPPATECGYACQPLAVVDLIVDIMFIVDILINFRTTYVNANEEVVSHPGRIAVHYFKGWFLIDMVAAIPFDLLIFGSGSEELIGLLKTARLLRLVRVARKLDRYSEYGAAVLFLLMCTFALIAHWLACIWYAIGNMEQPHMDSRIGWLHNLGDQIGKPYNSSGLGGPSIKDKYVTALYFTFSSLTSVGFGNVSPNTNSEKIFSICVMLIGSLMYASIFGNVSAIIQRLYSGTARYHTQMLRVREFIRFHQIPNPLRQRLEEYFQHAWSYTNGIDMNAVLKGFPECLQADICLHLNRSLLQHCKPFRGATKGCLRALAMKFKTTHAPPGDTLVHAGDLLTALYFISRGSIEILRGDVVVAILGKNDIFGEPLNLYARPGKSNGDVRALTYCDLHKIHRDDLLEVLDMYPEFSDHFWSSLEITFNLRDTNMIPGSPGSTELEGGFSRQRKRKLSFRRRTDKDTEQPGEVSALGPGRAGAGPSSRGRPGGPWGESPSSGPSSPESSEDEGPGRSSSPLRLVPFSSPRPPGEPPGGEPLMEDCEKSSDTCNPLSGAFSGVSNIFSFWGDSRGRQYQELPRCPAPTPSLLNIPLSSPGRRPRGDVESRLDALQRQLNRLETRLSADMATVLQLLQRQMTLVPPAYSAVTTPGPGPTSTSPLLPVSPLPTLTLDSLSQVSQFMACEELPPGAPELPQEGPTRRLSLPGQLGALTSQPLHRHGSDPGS

Row | Structure (SMILES) | hERG current change (%, negative = inhibition) at 10uM [%]
1 | CCN=C1SC(CC(=O)NC(C)c2ccccc2)C(=O)N1CC (stereo not shown) | 16.7
2 | CCN(CC)S(=O)(=O)c1ccc(C(=O)Nc2cc(C)cc(C)c2)cc1 | -8.53
3 | CCOc1ccccc1OCc1nn2c(COc3ccccc3)nnc2s1 | 4.95
4 | CC(C)(C)C1CCc2c(C(=O)NNC(=O)/C=C/C(=O)O)csc2C1 (stereo not shown) | 10.3
5 | Cc1ccc(NS(=O)(=O)c2ccc3c(c2)NC(=O)C(C)C(=O)N3)c(Cl)c1 (stereo not shown) | 0.637
6 | CCCN1CCN(S(=O)(=O)c2ccc3c(c2)NC(=O)C(C)S3)CC1 (stereo not shown) | -3.49
7 | CCOC(=O)C[C@H]1c2ccccc2S(=O)(=O)N1c1cccc(OC)c1 | 0.858
8 | COC(=O)c1ccc(NC(=O)C23CC4CC(C2)CC(n2cnc(Cl)n2)(C4)C3)cc1 | -27.3
9 | CCCn1cc(SCC(=O)NCc2ccc3c(c2)OCO3)c2ccccc21 | -0.451
10 | COc1ccc2cc(C(=O)N(C)CC(=O)Nc3ccccc3Br)ccc2c1 | -5.11
11 | CC/C(C)=N/NC(=O)c1[nH]c2ccc(C)cc2c1-c1ccccc1 | 0.516
12 | CCN(CC)CCN=C(C)c1c(O)n(-c2ccccc2OC)c(=O)[nH]c1=O | 4.71
13 | NC(=O)c1sc(-c2ccsc2)cc1NS(=O)(=O)c1ccc(C(F)(F)F)cc1 | 11.7
14 | Cc1cc(NC(=O)CSc2nnc(COc3cccc(C)c3C)n2Cc2ccco2)no1 | 4.27
15 | CC1CCN(C(=O)Cn2cc(S(=O)(=O)CC(=O)N3CCOCC3)c3ccccc32)CC1 | -16.4
16 | Cc1cccc(C(=O)Nc2ccccc2-c2nnn(CC(=O)Nc3ccc4c(c3)OCCO4)n2)c1 | -2.64
17 | CC(=O)c1cccc(NC(=O)C2CCCN(S(C)(=O)=O)C2)c1 (stereo not shown) | 8.02
18 | Cc1ccc(OCC(=O)Nc2ccccc2C(=O)N2CCCCC2)cc1 | 0.609
19 | Cc1ccccc1-c1cc(-c2ccccc2O)n[nH]1 | 7.08
20 | CCN1CCN(c2c(/C=C3\SC(=S)N(Cc4ccco4)C3=O)c(C)c(C#N)c(=O)n2C)CC1 | 0.931
21 | CCN(CC)CCCN(C(=O)c1ccc(OC)cc1)c1nc(-c2ccc(OC)cc2)cs1 | -73.7
22 | COc1ccc(C2CC(C(F)(F)F)n3nc(CO)c(Cl)c3N2)cc1OC (stereo not shown) | 16.5

Row | Structure (SMILES) | hERG current change (%, negative = inhibition) at 10uM [%]
23 | COCCNC(=O)COc1cccc2c1OC(C)(C)C2 | 24.5
24 | COc1ccc(-n2nnnc2/C=C\Nc2ccccc2C(=O)c2ccccc2)cc1 | 6.94
25 | Cc1cccc(N2C(=O)C3C4C=CC(C5CC45)C3C2=O)n1 (stereo not shown) | 10.6
26 | C/C(=N\OCc1ccccc1)c1c(O)cc(C(C)C)n(-c2ccccc2)c1=O | -3.54
27 | CCOc1cc(C(=O)Nc2ccc(S(=O)(=O)Nc3cnc4ccccc4n3)cc2)cc(OCC)c1OCC | 5.11
28 | COc1ccc(C(=O)Nc2cccnc2)cc1OC | 12.3
29 | CC(NC(=O)CSCc1ccccc1Br)c1ccccc1 (stereo not shown) | -12.3
30 | CCCN(CCC)C(=O)Cn1c(=O)c2sccc2n2c(=S)sc(-c3ccccc3)c12 | 13.3
31 | Cn1c(CNC(=O)CCNC(=O)c2cccc(Cl)c2)cc(=O)n(C)c1=O | 18.7
32 | CN1C(C)(C)CCCC1(C)C.O=C(O)C(O)C(O)C(=O)O | 8.57
33 | CC(C)(Oc1ccc(Cl)cc1)C(=O)OCn1nnc2ccccc2c1=O | 16.7
34 | CCS(=O)(=O)N1Cc2ccccc2CC1C(=O)Nc1ccc(F)c(F)c1F (stereo not shown) | 6.02
35 | Nc1nc2n(n1)C(c1ccco1)CC(c1ccc(Cl)cc1)N2 (stereo not shown) | -11.1
36 | C/C(O)=C(\C#N)C(=O)Nc1cc(Br)ccc1Br | 10.4
37 | Cc1ccccc1CN(C)C(=O)[C@H](Cc1ccccc1)NC(=O)c1ccco1 | -4.19
38 | CCc1ccc(C(=O)Nc2ccc(OC)c(S(=O)(=O)N3CCOCC3)c2)cc1 | -37.2
39 | Cc1ccc(Nc2nc(N)c([N+](=O)[O-])c(N3CCC(C)CC3)n2)cc1C | 7.13
40 | CC1CN(C(=O)CN2C(=O)NC3(CCCCCC3)C2=O)CC(C)O1 (stereo not shown) | 16
41 | CCn1ncc(Br)c1C(=O)Nc1ccc(C(C)C)cc1 | 9.74
42 | CCCCC1CCC(C(=O)N(C)CC(=O)Nc2cccc(F)c2)CC1 (stereo not shown) | 12.9
43 | COC(=O)C1=Nc2ccccc2/C1=C\c1c(O)n(-c2ccc(OC)cc2)c(=O)[nH]c1=O | -1.33
44 | Cc1csc2ncc(C(=O)NCc3ccc4c(c3)OCO4)c(=O)n12 | -10.7

Row | Structure (SMILES) | hERG current change (%, negative = inhibition) at 10uM [%]
45 | CCC(C)(C)NC(=S)Nc1ccc(-c2nc3ccc(C)cc3s2)cc1 | 10.1
46 | CC(=O)c1cccc(NC(=O)c2ccc(NC(=O)CCS(=O)(=O)c3cccs3)cc2)c1 | 15.8
47 | O=c1c(N2CCCCC2)coc2ccccc12 | 17.5
48 | Cc1ccc(S(=O)(=O)N2CCC3(CC2)OCCO3)s1 | 8.41
49 | CCN(CC)Cc1c(C(=O)OC(C)C)nnn1-c1nonc1N | 7.56
50 | COc1ccccc1[C@@]1(C)ON(c2ccccc2C(F)(F)F)C1=O | 6.06
51 | O=C(Nc1cccc(Cl)c1N1CCOCC1)c1cccs1 | -23.5
52 | CC(Oc1ccc2ccc(=O)oc2c1)C(=O)NC(Cc1c[nH]c2ccc(O)cc12)C(=O)O (stereo not shown) | 6.42
53 | Cc1ccnc2nc(C(=O)OCCOc3ccc(F)cc3)nn12 | -35.6
54 | COc1ccc(-n2c(O)c(C=NCCCn3ccnc3)c(=O)[nH]c2=O)cc1 | 14.1
55 | O=C(NCCO)C(=O)NCC1OCCCN1S(=O)(=O)c1cc(F)ccc1F (stereo not shown) | 13.6
56 | O=C(Oc1ccc([N+](=O)[O-])cc1)c1cc(-c2ccccc2)nc2ccccc12 | 8
57 | Cc1nn(Cc2ccccc2)c(C)c1NC(=O)CSc1nc2c(c(C(F)(F)F)n1)CCc1ccccc1-2 | -20.5
58 | O=C(O)c1ccc(-c2cccc([N+](=O)[O-])c2)o1 | 12.4
59 | Cc1nc2ccccc2nc1SCC(=O)N1CCC(C)CC1 | 1.12
60 | CCC(=O)N1c2ccccc2NC2=C(C(=O)CC(C)(C)C2)C1c1cccnc1 (stereo not shown) | 20.8
61 | CC(=O)Nc1c(C(=O)C2CC2)oc2ccccc12 | -7
62 | CC(=O)Nc1ccc(NC=C(C#N)C#N)cc1 | -9.27
63 | Cc1ccc(OCCC(=O)OCC(=O)N2CCN(S(=O)(=O)c3ccc(Cl)cc3)CC2)cc1 | -0.425
64 | CCOC(=O)c1c(-c2ccc(C)o2)csc1NC(=O)CSc1nncs1 | -16.1
65 | CNC(=O)c1cccc(NC(=O)c2ccccc2OCc2ccccc2)c1 | -2.21
66 | COc1ccc(S(=O)(=O)NCC(c2ccc(C)cc2)N2CCN(C)CC2)cc1 (stereo not shown) | -51.9

Row | Structure (SMILES) | hERG current change (%, negative = inhibition) at 10uM [%]
67 | Cc1c(/C=N\NC(=O)c2ccc([N+](=O)[O-])cc2)cnn1C | -7.03
68 | CCn1c(SCC(=O)N=Nc2c(O)[nH]c3ccccc23)nnc1-c1ccc(C(C)(C)C)cc1 | -5.11
69 | O=C(OCC(=O)N(C1CCCCC1)C1CCCCC1)c1ccc(Cl)nc1 | 4.45
70 | CCN(CC)C1=CC(=[N+]2CCCC2)CC(C)(C)C1.[I-] | -4.08
71 | CCn1c(SCC(=O)N/N=C/c2cc(OC)c(O)c(OC)c2)nc2ccccc21 | -19.2
72 | CC(=O)N1c2ccc(S(=O)(=O)N3CCCCC3)cc2CC1C(=O)Nc1ccc(F)cc1C (stereo not shown) | -13.3
73 | Cc1ccccc1-n1cnnc1SCC(=O)N1CCN(c2ccccc2)CC1 | -57.7
74 | CCOC(=O)C1=C(C)NC2=C(C(=O)CCC2)C1c1cc(OC)ccc1OC (stereo not shown) | -6.22
75 | COc1ccc(N2CCN(CC(=O)Nc3ccc(C)cc3)CC2)cc1 | -18.7
76 | c1cnc(N2CCN(Cc3ccc4c(c3)OCO4)CC2)cn1 | -21.7
77 | Cc1ccc(S(=O)(=O)NC(C(=O)OCC(=O)NC2CCS(=O)(=O)C2)C(C)C)cc1 (stereo not shown) | 9.01
78 | Cc1ccccc1OCC(=O)NNC(=O)c1cc(S(=O)(=O)N2CCOCC2)ccc1N1CCCC1 | 3.34
79 | OCCCn1c(C2CCCN2c2nc(-c3ccc(Cl)cc3)cs2)nc2cc(Cl)c(N3CCCCC3)cc21 (stereo not shown) | 3.24
80 | Nc1c(C2=NCCO2)nnn1Cc1ccccc1 | 17.6
81 | COc1cc(/C=C(/NC(=O)c2ccccc2)C(=O)Nc2cccc(O)c2)c([N+](=O)[O-])cc1OC | 0.394
82 | CCCOC(=O)Nc1nc(-c2ccc(C)cc2)c(C)s1 | 17.2
83 | C#CCCOC(=O)N1C2=NC(C(=O)OC)=C(C(=O)OC)[C@@H]3N(CC=C)c4ccccc4[C@]23C[C@H]1C(=O)OC | -9.66
84 | CCOC(=O)c1ccc(N2CCCCC2)c(NS(=O)(=O)c2ccc(C)cc2)c1 | 9.39
85 | COc1cc(C2Nc3cc(Cl)c(S(N)(=O)=O)cc3S(=O)(=O)N2)ccc1OCc1ccccc1 (stereo not shown) | -1.49
